# Data published in article PMC6451091.
# The list shows a part of the results. For part of these data: At the low end of the ranking, values are background and their order means little. For part of these data: The protein was read in a cell extract, so binding may be indirect.
# Assays:
# Conditions in all cases: 20 mM HEPES pH 7.9, 100 mM NaCl, 1 mM DTT, 0.2 mg/mL BSA, 0.02% Triton X-100, 2% milk, 0.4 mg/mL salmon testes DNA; 1 h; temperature not stated; high values mean tight binding; double strand, one strand shown; sequences stand for … in GCCTAGCAC…GTGCTAGGTCTTGATTCGCTTGACGCTGCTG
# [1] = target: PU.1 (IVT) (UniProt P17947); test: protein-binding microarray (PBM)
# [2] = target: PU.1 (endogenous, THP-1 nuclear extract) (UniProt P17947); test: nuclear extract protein-binding microarray (nextPBM)
# [3] = target: T1, FLI1 (endogenous, THP-1 nuclear extract) (UniProt Q01543); test: as above
# T1 sequence: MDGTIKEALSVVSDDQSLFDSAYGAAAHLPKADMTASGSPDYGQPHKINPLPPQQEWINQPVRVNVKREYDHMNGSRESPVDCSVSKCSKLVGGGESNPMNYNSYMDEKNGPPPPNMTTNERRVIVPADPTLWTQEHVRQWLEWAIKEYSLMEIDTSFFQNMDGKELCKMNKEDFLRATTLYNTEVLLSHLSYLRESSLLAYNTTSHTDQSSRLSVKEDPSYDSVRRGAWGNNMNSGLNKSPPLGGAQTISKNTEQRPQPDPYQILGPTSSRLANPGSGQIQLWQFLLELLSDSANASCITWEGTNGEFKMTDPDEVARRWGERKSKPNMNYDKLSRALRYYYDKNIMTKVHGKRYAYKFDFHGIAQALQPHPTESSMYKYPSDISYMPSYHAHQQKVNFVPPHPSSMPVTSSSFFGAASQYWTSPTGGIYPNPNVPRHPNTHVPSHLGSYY
sequence,measurement,setting,value
CCACAGAGGAAATGAGTTCT,binding signal,[1],1.33 z-score
same,binding signal,[2],1.16 z-score
same,binding signal,[3],2.6 z-score
CGAATGAGGAAATGAAGGCA,binding signal,[1],3.57 z-score
same,binding signal,[2],3.7 z-score
same,binding signal,[3],1.96 z-score
TAGAAGAGGAAGTGGATGAT,binding signal,[1],5.98 z-score
same,binding signal,[2],6.4 z-score
same,binding signal,[3],3.3 z-score
TGGAAGAGGAAGTGGTGGCC,binding signal,[1],5.89 z-score
same,binding signal,[2],6.37 z-score
same,binding signal,[3],3.09 z-score
AATAAAAGGAAGTCAGTTCT,binding signal,[1],4.55 z-score
same,binding signal,[2],3.63 z-score
same,binding signal,[3],2.37 z-score
TTTTTGGGGAAGTGAGGTTC,binding signal,[1],5.38 z-score
same,binding signal,[2],5.87 z-score
same,binding signal,[3],1.63 z-score
GAAATGAGGAAGTCTAACCT,binding signal,[1],7.55 z-score
same,binding signal,[2],7.11 z-score
same,binding signal,[3],3.28 z-score
CGAAAAGGGAAGTGGATGCT,binding signal,[1],6.21 z-score
same,binding signal,[2],6.74 z-score
same,binding signal,[3],2.94 z-score
AGAGGAAGGAAGTGGCTATG,binding signal,[1],2.27 z-score
same,binding signal,[2],2.44 z-score
same,binding signal,[3],2.19 z-score
TTTTTGAGGAACTGCCAAAT,binding signal,[1],4.28 z-score
same,binding signal,[2],4.43 z-score
same,binding signal,[3],1.11 z-score
CAATTGAGGAACTGTAGATG,binding signal,[1],4.22 z-score
same,binding signal,[2],4.63 z-score
same,binding signal,[3],1.29 z-score
GAAAAGAGGAAATGAAATTG,binding signal,[1],6.51 z-score
same,binding signal,[2],6.43 z-score
same,binding signal,[3],3.31 z-score
GATAGCAGGAAGTGGGCAGA,binding signal,[1],2.58 z-score
same,binding signal,[2],2.76 z-score
same,binding signal,[3],3.55 z-score
AAAAAAAGGAAGTGTCAACT,binding signal,[1],6.38 z-score
same,binding signal,[2],6.41 z-score
same,binding signal,[3],2.57 z-score
GAAAACAAGAAGTCCCATAG,binding signal,[1],2.12 z-score
same,binding signal,[2],2.07 z-score
same,binding signal,[3],0.415 z-score
TAGGAGAGGAAGTGAGAGAA,binding signal,[1],4.16 z-score
same,binding signal,[2],4.16 z-score
same,binding signal,[3],2.77 z-score
GAAAACAGGAAGTCCCATGG,binding signal,[1],7.18 z-score
same,binding signal,[2],7.08 z-score
same,binding signal,[3],4.74 z-score
GCTATGAGGAACTGAGGGCA,binding signal,[1],2.57 z-score
same,binding signal,[2],2.87 z-score
same,binding signal,[3],0.534 z-score
TGAAAGGGGAAGTGGGCTCA,binding signal,[1],6.18 z-score
same,binding signal,[2],6.88 z-score
same,binding signal,[3],3.28 z-score
CTAATGGGGAAGTGCCACAC,binding signal,[1],4.33 z-score
same,binding signal,[2],5.51 z-score
same,binding signal,[3],1.65 z-score
GAAAAGAGGAACAGCCTCTG,binding signal,[1],5.13 z-score
same,binding signal,[2],5.96 z-score
same,binding signal,[3],1.46 z-score
CAGAAAAGGAAGTGAGTTTA,binding signal,[1],3.96 z-score
same,binding signal,[2],3.73 z-score
same,binding signal,[3],2.81 z-score
TCAGTGGGGAAGTGACATGG,binding signal,[1],3.41 z-score
same,binding signal,[2],3.09 z-score
same,binding signal,[3],1.32 z-score
TGAAAGAGGAAGTGCAGCCA,binding signal,[1],7.32 z-score
same,binding signal,[2],6.89 z-score
same,binding signal,[3],4.17 z-score
CATAAGAGGAAGTGGCAGTT,binding signal,[1],6.2 z-score
same,binding signal,[2],6.33 z-score
same,binding signal,[3],3.23 z-score
CGAAAGAGGAAGTAGAAACA,binding signal,[1],7.76 z-score
same,binding signal,[2],7.42 z-score
same,binding signal,[3],3.59 z-score
GAAAACAGGAAGTCCCACAG,binding signal,[1],7.48 z-score
same,binding signal,[2],7.09 z-score
same,binding signal,[3],4.43 z-score
AAAAAAAGGAAGTGATAGCC,binding signal,[1],6.5 z-score
same,binding signal,[2],6.46 z-score
same,binding signal,[3],3.06 z-score
GGTTTGGGGAAGTGGTTAAC,binding signal,[1],5.39 z-score
same,binding signal,[2],5.52 z-score
same,binding signal,[3],2.27 z-score
TAAAAGGAGAAGTGAACCGG,binding signal,[1],4.76 z-score
same,binding signal,[2],5.2 z-score
same,binding signal,[3],1.33 z-score
ATGATAAGGAAGTGAAACAG,binding signal,[1],3.54 z-score
same,binding signal,[2],4.03 z-score
same,binding signal,[3],2.31 z-score
AGGAAGGGGAAGTGGAAGAG,binding signal,[1],5.81 z-score
same,binding signal,[2],6 z-score
same,binding signal,[3],3.28 z-score
AAAGAGGGGAACTGGAGATG,binding signal,[1],1.77 z-score
same,binding signal,[2],2.06 z-score
same,binding signal,[3],0.648 z-score
ACAAAGAGGAAGTGGGTTCA,binding signal,[1],6.84 z-score
same,binding signal,[2],6.78 z-score
same,binding signal,[3],3.85 z-score
GTAAAGGGGAAGTCACAAAA,binding signal,[1],5.63 z-score
same,binding signal,[2],6.29 z-score
same,binding signal,[3],2.11 z-score
TAAGAGAGGAAGTGTAGCCT,binding signal,[1],3.79 z-score
same,binding signal,[2],3.77 z-score
same,binding signal,[3],2.49 z-score
CAGTTGAGGAAGTCATGGTG,binding signal,[1],3.8 z-score
same,binding signal,[2],3.73 z-score
same,binding signal,[3],1.89 z-score
AAGAGGAGGAAGTGCCTGAA,binding signal,[1],4.46 z-score
same,binding signal,[2],4.58 z-score
same,binding signal,[3],2.65 z-score
GTGGTGAGGAACTGAGAGTG,binding signal,[1],1.18 z-score
same,binding signal,[2],1.48 z-score
same,binding signal,[3],0.538 z-score
AAAAAGAGGAAGTAAAAGAC,binding signal,[1],8.93 z-score
same,binding signal,[2],7.41 z-score
same,binding signal,[3],4.45 z-score
GAATTGAGGAACTGAATGCT,binding signal,[1],5.26 z-score
same,binding signal,[2],5.65 z-score
same,binding signal,[3],1.69 z-score
GAAAACAGGAAGTCCCCTAG,binding signal,[1],7.57 z-score
same,binding signal,[2],7.19 z-score
same,binding signal,[3],4.94 z-score
